# Source: the supplement of paper PMC7826260
# This is one part of the list. Viral Rep nickase domains cut single-stranded DNA in vitro at 3 µM enzyme and 37 °C for 1 h; the strands have 90 letters, of which the middle is given. Values are log2 of uncut reads against the no-enzyme pool; uncut sequences lie near 0, cut ones below; no hit call is given. The scaling is to total reads; uncut strands gain when others are lost, and binding without cutting may add a little.
# Legend:
# Assay in all cases: uncleaved DNA left, log2 of reads against the no-enzyme library (log2 ratio); higher = less cleavage (more negative = more Rep cleavage of the k-mer); sequences stand for … in CTCGTCCG…ACCGGAGA
# [1] = system: T1, Rep nickase domain of Muscovy duck circovirus
# T1 sequence (residues 1-111 of Rep, tag left off): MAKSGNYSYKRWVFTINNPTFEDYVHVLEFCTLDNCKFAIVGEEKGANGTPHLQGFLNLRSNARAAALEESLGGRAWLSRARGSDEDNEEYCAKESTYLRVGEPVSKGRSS
# Procedure: (§1)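 A pool of 90-nt single-stranded DNAs with seven random bases just before the constant AC of the nick site (name = the seven bases) was cut by 3 µM recombinant His6-SUMO-tagged Rep nickase domain (300 nM DNA, 50 mM HEPES pH 8.0, 50 mM NaCl, 1 mM MnCl2, 1 h, 37 °C, three replicates). Uncut DNA was amplified and sequenced.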
# [2] = system: T2, Rep nickase domain of banana bunchy top virus
# T2 sequence (residues 1-94 of Rep, tag left off): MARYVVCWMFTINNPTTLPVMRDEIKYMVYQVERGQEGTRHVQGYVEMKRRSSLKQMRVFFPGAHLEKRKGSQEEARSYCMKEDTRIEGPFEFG
# Procedure: as §1
# [3] = system: T3, Rep nickase domain of cabbage leaf curl virus
# T3 sequence (residues 1-116 of Rep, tag left off): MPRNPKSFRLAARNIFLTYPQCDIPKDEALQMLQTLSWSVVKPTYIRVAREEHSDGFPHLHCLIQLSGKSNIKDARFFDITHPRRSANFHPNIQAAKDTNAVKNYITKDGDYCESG
# Procedure: as §1
# [4] = system: T4, Rep nickase domain of chickpea chlorotic dwarf virus
# T4 sequence (residues 1-124 of Rep, tag left off): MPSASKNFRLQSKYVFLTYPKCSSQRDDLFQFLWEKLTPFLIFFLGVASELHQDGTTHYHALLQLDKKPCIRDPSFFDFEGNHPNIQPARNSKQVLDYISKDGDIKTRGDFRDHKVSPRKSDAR
# Procedure: as §1
# [5] = system: T5, Rep nickase domain of faba bean necrotic yellows virus
# T5 sequence (residues 1-98 of Rep, tag left off): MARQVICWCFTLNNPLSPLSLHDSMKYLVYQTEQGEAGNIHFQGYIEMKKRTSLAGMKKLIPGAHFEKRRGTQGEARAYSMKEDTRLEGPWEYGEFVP
# Procedure: as §1
# [6] = system: T6, Rep nickase domain of maize striate mosaic virus
# T6 sequence (residues 1-117 of Rep, tag left off): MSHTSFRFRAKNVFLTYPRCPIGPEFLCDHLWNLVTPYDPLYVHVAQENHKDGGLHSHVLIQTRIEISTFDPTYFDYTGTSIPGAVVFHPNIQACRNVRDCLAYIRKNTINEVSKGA
# Procedure: as §1
# [7] = system: T7, Rep nickase domain of porcine circovirus 2
# T7 sequence (residues 2-116 of Rep, tag left off): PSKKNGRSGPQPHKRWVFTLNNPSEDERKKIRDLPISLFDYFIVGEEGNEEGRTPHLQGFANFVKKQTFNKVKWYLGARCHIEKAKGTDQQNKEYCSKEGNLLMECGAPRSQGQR
# Procedure: as §1
# [8] = system: T8, Rep nickase domain of tomato golden mosaic virus
# T8 sequence (residues 1-124 of Rep, tag left off): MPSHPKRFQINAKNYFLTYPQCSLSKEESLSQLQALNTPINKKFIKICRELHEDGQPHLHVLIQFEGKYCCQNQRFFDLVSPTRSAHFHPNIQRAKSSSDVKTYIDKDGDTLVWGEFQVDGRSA
# Procedure: as §1
# [9] = system: T9, Rep nickase domain of tomato yellow leaf curl virus
# T9 sequence (residues 1-136 of Rep, tag left off): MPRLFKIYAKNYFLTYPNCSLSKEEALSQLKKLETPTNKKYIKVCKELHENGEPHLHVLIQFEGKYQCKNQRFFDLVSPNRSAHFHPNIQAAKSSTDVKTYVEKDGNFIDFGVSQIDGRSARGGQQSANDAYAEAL
# Procedure: as §1
# [10] = system: T10, Rep nickase domain of wheat dwarf virus
# T10 sequence (residues 1-137 of Rep, tag left off): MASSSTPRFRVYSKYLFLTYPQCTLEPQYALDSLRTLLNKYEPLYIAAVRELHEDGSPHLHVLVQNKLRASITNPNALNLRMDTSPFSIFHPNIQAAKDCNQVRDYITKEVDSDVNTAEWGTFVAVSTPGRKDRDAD
# Procedure: as §1
Sequence,uncleaved DNA left (log2) [1],uncleaved DNA left (log2) [2],uncleaved DNA left (log2) [3],uncleaved DNA left (log2) [4],uncleaved DNA left (log2) [5],uncleaved DNA left (log2) [6],uncleaved DNA left (log2) [7],uncleaved DNA left (log2) [8],uncleaved DNA left (log2) [9],uncleaved DNA left (log2) [10]
CTAAACT,0.11,0.0553,-0.0912,-2.91,0.00883,-0.695,-0.185,-0.0123,0.0503,-0.104
CACGGGG,0.0661,0.0528,0.547,1.06,0.106,1.11,0.179,0.0424,0.0208,0.0252
GATAGAT,0.235,0.138,0.372,0.726,0.152,1.44,0.0194,0.107,0.0956,0.212
TCGCATC,0.0621,-0.0209,0.00109,-0.111,-0.097,-0.532,0.0235,0.0583,0.081,0.126
CCATGTC,-0.0383,-0.134,-0.37,-0.422,-0.0287,-1.28,-0.0572,-0.127,-0.00871,-0.237
CTCGCAG,0.264,0.0622,-0.675,-0.613,0.109,-0.896,0.358,-0.0126,0.195,0.112
ATGTGAG,0.113,0.0125,-0.692,-0.385,-0.0706,-1.06,0.163,-0.00636,0.167,-0.0767
CCATCAC,0.103,0.0964,-0.0625,-0.461,0.132,-0.886,0.203,0.0393,0.0597,-0.0335
TAAACTT,-1.36,-0.798,-4.41,-3.38,-0.0603,-2.8,-3.84,-3.65,-0.182,-3.62
GGCCCTT,-0.0816,-0.0903,0.737,1.43,-0.0055,2.11,-0.105,-0.0756,0.0142,0.0241
CCTTGCA,0.047,0.0559,-0.777,-0.863,0.122,-1.17,0.176,0.00541,0.214,-0.0704
GTTCGTG,0.0635,0.104,-0.087,-0.182,0.0942,-0.375,0.23,0.0794,0.141,0.086
GCAACGC,-0.0728,0.061,-0.0994,-0.0645,0.0117,-0.624,0.102,0.0773,-0.0238,-0.00853
GGTTATG,0.0156,-0.0155,0.177,0.482,-0.119,0.385,0.14,0.0693,0.0583,-0.0249
TTGAAGA,0.0223,-0.0916,-0.175,-0.382,-0.226,-1.14,-0.0209,-0.094,0.00413,-0.106
TTCCTGC,-0.0546,-0.146,-0.481,-0.759,-0.0117,-1.11,-0.065,-0.185,-0.16,-0.0634
GCACCTA,-0.0726,-0.0623,-0.066,-0.415,-0.2,0.000348,-0.211,-0.0561,-0.0333,-0.0124
TTTGTGA,0.0777,-0.0445,-0.58,-0.672,0.000241,-1.11,0.0568,-0.0331,0.0319,-0.0664
AACTGTA,-0.28,-0.0909,-0.128,-0.364,0.0167,0.604,-2.76,-0.0529,-0.0518,0.154
AAACTGT,0.0827,0.0662,0.0409,-0.0428,0.0572,0.968,0.0728,0.0296,-0.0515,0.027
TGTTGCC,-0.154,-0.0915,-0.55,-0.581,-0.0201,-0.992,-0.0815,-0.182,-0.0531,-0.226
TATTCCA,-2.78,-1.34,-0.137,-2.36,-0.0315,-0.411,-2.26,-0.124,0.119,-0.148
CAGACTG,0.118,0.103,0.0821,0.822,0.0433,1.81,0.108,0.0742,-0.095,0.115
GCTGAGA,-0.0439,0.0654,0.207,0.616,0.0433,0.288,0.115,0.0527,0.0788,0.0873
ACGAGCA,-0.0358,0.058,-0.358,-0.486,-0.113,-0.995,-2.37,0.0324,0.0451,-0.0532
CCATGGT,-0.403,-0.13,-0.293,-0.25,-0.0729,-0.505,-0.673,-0.0316,-0.00857,-0.149
TTGAGTT,0.00956,-0.137,-0.354,-1.96,-0.242,-0.882,-0.91,-0.159,-0.0625,-0.0851
GTACCCG,-0.0935,-0.0815,-0.634,-0.879,0.0793,-0.785,-0.805,-0.00623,-0.0385,-0.0417
CCCCCCC,-0.191,0.0378,0.116,-0.0934,0.00775,-0.183,-0.174,-0.0497,-0.12,-0.0485
TGGATCT,0.0249,-0.0764,0.476,0.637,-0.11,1.52,-0.0365,-0.172,0.0541,0.0879
